This passage reports binding signal results from article PMC9911399, “Two distinct binding modes provide the RNA-binding protein RbFox with extraordinary sequence specificity”.

Where a chain is given by its changes, count along the chain named. Some of the results follow.

B1: AAAGGCG (DNA:RNA)
RNA: GGGAGACCGGAAUUCAGAUUGUCCAAAGGCGUUAAAUCCCGUCGUAGCCACCA
DNA 1: CAATCTGAATTCCGGTCTCCC
DNA 2: TGGTGGCTACGACGGGATT
B2: GAGUCAU (DNA:RNA)
RNA: B1 RNA with A25G, A27G, G28U, G29C, C30A, G31U
DNA 1: CAATCTGAATTCCGGTCTCCC
DNA 2: TGGTGGCTACGACGGGATT
B3: GAGAGCU (DNA:RNA)
RNA: B1 RNA with A25G, A27G, G28A, G31U
DNA 1: CAATCTGAATTCCGGTCTCCC
DNA 2: TGGTGGCTACGACGGGATT
B4: AGACAGU (DNA:RNA)
RNA: B1 RNA with A26G, G28C, G29A, C30G, G31U
DNA 1: CAATCTGAATTCCGGTCTCCC
DNA 2: TGGTGGCTACGACGGGATT
B5: GUUCAAA (DNA:RNA)
RNA: GGGAGACCGGAAUUCAGAUUGUCCGUUCAAAUUAAAUCCCGUCGUAGCCACCA
DNA 1: CAATCTGAATTCCGGTCTCCC
DNA 2: TGGTGGCTACGACGGGATT
B6: CUGUCGG (DNA:RNA)
RNA: B1 RNA with A25C, A26U, A27G, G28U, G29C, C30G
DNA 1: CAATCTGAATTCCGGTCTCCC
DNA 2: TGGTGGCTACGACGGGATT
B7: CAACCGG (DNA:RNA)
RNA: B1 RNA with A25C, G28C, G29C, C30G
DNA 1: CAATCTGAATTCCGGTCTCCC
DNA 2: TGGTGGCTACGACGGGATT
B8: CCAGGGC (DNA:RNA)
RNA: B1 RNA with A25C, A26C, C30G, G31C
DNA 1: CAATCTGAATTCCGGTCTCCC
DNA 2: TGGTGGCTACGACGGGATT
B9: AGUCUUG (DNA:RNA)
RNA: B1 RNA with A26G, A27U, G28C, G29U, C30U
DNA 1: CAATCTGAATTCCGGTCTCCC
DNA 2: TGGTGGCTACGACGGGATT
B10: GUAGCAG (DNA:RNA)
RNA: B1 RNA with A25G, A26U, G29C, C30A
DNA 1: CAATCTGAATTCCGGTCTCCC
DNA 2: TGGTGGCTACGACGGGATT
B11: AUGAAAC (DNA:RNA)
RNA: B5 RNA with G25A, U27G, C28A, A31C
DNA 1: CAATCTGAATTCCGGTCTCCC
DNA 2: TGGTGGCTACGACGGGATT
B12: CCCAGGC (DNA:RNA)
RNA: B1 RNA with A25C, A26C, A27C, G28A, C30G, G31C
DNA 1: CAATCTGAATTCCGGTCTCCC
DNA 2: TGGTGGCTACGACGGGATT
B13: UCGGUUC (DNA:RNA)
RNA: B1 RNA with A25U, A26C, A27G, G29U, C30U, G31C
DNA 1: CAATCTGAATTCCGGTCTCCC
DNA 2: TGGTGGCTACGACGGGATT
B14: GUUGUUC (DNA:RNA)
RNA: B5 RNA with C28G, A29U, A30U, A31C
DNA 1: CAATCTGAATTCCGGTCTCCC
DNA 2: TGGTGGCTACGACGGGATT
B15: UGAAGGU (DNA:RNA)
RNA: B1 RNA with A25U, A26G, G28A, C30G, G31U
DNA 1: CAATCTGAATTCCGGTCTCCC
DNA 2: TGGTGGCTACGACGGGATT
B16: UCAAUGG (DNA:RNA)
RNA: B1 RNA with A25U, A26C, G28A, G29U, C30G
DNA 1: CAATCTGAATTCCGGTCTCCC
DNA 2: TGGTGGCTACGACGGGATT
B17: GCCUCCC (DNA:RNA)
RNA: B1 RNA with A25G, A26C, A27C, G28U, G29C, G31C
DNA 1: CAATCTGAATTCCGGTCTCCC
DNA 2: TGGTGGCTACGACGGGATT
B18: GGUUGCC (DNA:RNA)
RNA: B1 RNA with A25G, A26G, A27U, G28U, G31C
DNA 1: CAATCTGAATTCCGGTCTCCC
DNA 2: TGGTGGCTACGACGGGATT
B19: UAGCAAU (DNA:RNA)
RNA: B5 RNA with G25U, U26A, U27G, A31U
DNA 1: CAATCTGAATTCCGGTCTCCC
DNA 2: TGGTGGCTACGACGGGATT
B20: ACAUCAC (DNA:RNA)
RNA: B1 RNA with A26C, G28U, G29C, C30A, G31C
DNA 1: CAATCTGAATTCCGGTCTCCC
DNA 2: TGGTGGCTACGACGGGATT
B21: GGCCUGA (DNA:RNA)
RNA: B5 RNA with U26G, U27C, A29U, A30G
DNA 1: CAATCTGAATTCCGGTCTCCC
DNA 2: TGGTGGCTACGACGGGATT
B22: AUAUUCC (DNA:RNA)
RNA: B1 RNA with A26U, G28U, G29U, G31C
DNA 1: CAATCTGAATTCCGGTCTCCC
DNA 2: TGGTGGCTACGACGGGATT
B23: UAGCCAC (DNA:RNA)
RNA: B5 RNA with G25U, U26A, U27G, A29C, A31C
DNA 1: CAATCTGAATTCCGGTCTCCC
DNA 2: TGGTGGCTACGACGGGATT
B24: AAGCUUA (DNA:RNA)
RNA: B1 RNA with A27G, G28C, G29U, C30U, G31A
DNA 1: CAATCTGAATTCCGGTCTCCC
DNA 2: TGGTGGCTACGACGGGATT
B25: GUUUGGU (DNA:RNA)
RNA: B5 RNA with C28U, A29G, A30G, A31U
DNA 1: CAATCTGAATTCCGGTCTCCC
DNA 2: TGGTGGCTACGACGGGATT
B26: CAUCUGA (DNA:RNA)
RNA: B5 RNA with G25C, U26A, A29U, A30G
DNA 1: CAATCTGAATTCCGGTCTCCC
DNA 2: TGGTGGCTACGACGGGATT
B27: CCGCGGC (DNA:RNA)
RNA: B1 RNA with A25C, A26C, A27G, G28C, C30G, G31C
DNA 1: CAATCTGAATTCCGGTCTCCC
DNA 2: TGGTGGCTACGACGGGATT
B28: AUUUUUU (DNA:RNA)
RNA: B5 RNA with G25A, C28U, A29U, A30U, A31U
DNA 1: CAATCTGAATTCCGGTCTCCC
DNA 2: TGGTGGCTACGACGGGATT
B29: ACGCACC (DNA:RNA)
RNA: B1 RNA with A26C, A27G, G28C, G29A, G31C
DNA 1: CAATCTGAATTCCGGTCTCCC
DNA 2: TGGTGGCTACGACGGGATT
B30: GGAUGUU (DNA:RNA)
RNA: B1 RNA with A25G, A26G, G28U, C30U, G31U
DNA 1: CAATCTGAATTCCGGTCTCCC
DNA 2: TGGTGGCTACGACGGGATT
B31: GCUGGCA (DNA:RNA)
RNA: B1 RNA with A25G, A26C, A27U, G31A
DNA 1: CAATCTGAATTCCGGTCTCCC
DNA 2: TGGTGGCTACGACGGGATT

This assay has as its target T1, RBFOX1 RRM RbFoxmut (Fox-RRM*) (Homo sapiens, UniProt Q9NWB1 109-208, R118D;E147R;N151S;E152T).
T1 sequence: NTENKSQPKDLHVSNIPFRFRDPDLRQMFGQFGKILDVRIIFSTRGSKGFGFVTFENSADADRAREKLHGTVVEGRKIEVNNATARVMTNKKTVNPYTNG
Nature of the assay: EMSA; HiTS-Eq, 1 nM pool, 10 min; buffer printed only for the single-RNA assays: 10 mM Tris pH 7.5, 150 mM NaCl, 3.4 mM EDTA, 0.001% NP-40, 30 C. The following applies: tags: His6 N-terminal (pET28a); label: 5' 32P. An outline of the steps: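 A pool of RNA with 7 randomized nucleotides, 5′-radiolabelled and with DNA-annealed flanks, was equilibrated at 1 nM for 10 min in 50 µL with purified RbFox RRM, wild type or mutant, across increasing protein concentrations. Free RNA was separated by 8% native PAGE, excised, reverse-transcribed, barcoded by PCR and sequenced. Relative association constants were obtained from read-count changes of each RNA species versus the control reaction and normalised to the cognate motif.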
Take B1: the binding signal was 0.0873 KA relative to UGCAUGU.

As for B2, the binding signal was 0.0946 KA relative to UGCAUGU. As for B3, the figure is 0.0872 KA relative to UGCAUGU. As for B4, the figure is 0.0698 KA relative to UGCAUGU; as for B5, 0.0907 KA relative to UGCAUGU. As for B6, the figure is 0.0693 KA relative to UGCAUGU; as for B7, 0.0516 KA relative to UGCAUGU. Turning to B8, the binding signal was 0.102 KA relative to UGCAUGU. As for B9, the figure is 0.459 KA relative to UGCAUGU; as for B10, 0.105 KA relative to UGCAUGU; as for B11, 0.125 KA relative to UGCAUGU. As for B12, the binding signal was 0.0852 KA relative to UGCAUGU. As for B13, the figure is 0.112 KA relative to UGCAUGU; as for B14, 0.106 KA relative to UGCAUGU. For the molecule B15, the binding signal is 0.0671 KA relative to UGCAUGU. On to B16, for which the binding signal was 0.0834 KA relative to UGCAUGU.

Consider B17, for which the binding signal was 0.0539 KA relative to UGCAUGU. With B18, the binding signal was 0.141 KA relative to UGCAUGU. The value for B19 was 0.058 KA relative to UGCAUGU; that for B20 was 0.116 KA relative to UGCAUGU; that for B21 was 0.171 KA relative to UGCAUGU. The value for B22 was 0.0873 KA relative to UGCAUGU; that for B23 was 0.0907 KA relative to UGCAUGU. The value for B24 was 0.126 KA relative to UGCAUGU.

As to B25, the binding signal is 0.285 KA relative to UGCAUGU. The value for B26 was 0.0523 KA relative to UGCAUGU; that for B27 was 0.0909 KA relative to UGCAUGU.

Regarding B28, the binding signal is 0.13 KA relative to UGCAUGU.

On to B29, for which the binding signal was 0.121 KA relative to UGCAUGU. The value for B30 was 0.213 KA relative to UGCAUGU; that for B31 was 0.145 KA relative to UGCAUGU.
